Data published in patent US10800791B2, “Triazole ACC inhibitors and uses thereof” (Gilead Apollo, LLC, priority 2015, dated 2020).

Experiments:
Botrtyis cinerea (Bc) = experiment: Growth inhibition assay of fungal pathogens, Bc; format: cell-based; conditions: 48 h, growth inhibition at 48 hours vs 2% DMSO control
Protocol: (§1) Compounds of the present invention were evaluated in a growth inhibition assay to determine the ability to control the growth of fungal pathogens, such as Botrtyis cinerea (Bc), Collectotrichum graminicola (Cg), Diplodia maydis (Dm), Fusarium moniliforme (Fm), Fusarium virguliforme (Fv), Phytophthora capsici (Pc), Rhizoctonia solani (Rs), and Septoria tritici (St).
(§2) Compounds to be tested were dissolved in DMSO at 2.5 mg/ml to produce compound stock solutions (“stocks”). Stocks were diluted with DMSO by a five-fold dilution in a 96-well stock plate, and two sets of final concentrations of 50, 10, and 2 ppm or 2, 0.4, and 0.08 ppm were obtained in vitro. A set of positive controls was also prepared, with various concentrations of Soraphen (2, 0.4, and 0.08 ppm), Metalaxyl (1.1, 0.22, and 0.04 ppm), and Metconazole (2, 0.4, and 0.08 ppm or 0.2, 0.04, and 0.008 ppm) after the five-fold dilutions. Negative controls on each plate included 2% DMSO, water, and a blank (media+2% DMSO).
(§3) Fungal spores were isolated from previously sub-cultured plates of Botrtyis cinerea (Bc), Collectotrichum graminicola (Cg), Diplodia maydis (Dm), Fusarium moniliforme (Fm), Fusarium virguliforme (Fv), Phytophthora capsici (Pc), and Septoria tritici (St). The isolated spores were diluted to individual concentrations with a 17% V8 liquid media. For Rhizoctonia solani (Rs) and Pythium irregulare, 1.5 mm mycelial plugs were used in place of spores and/4 Potato Dextrose Broth (PDB) was used for dilution. The spore concentrations and plug sizes were based on growth curves generated at 48 hours for each pathogen.
(§4) In a second 96-well plate, the spores or mycelial plugs, media, diluted compound solutions, and controls were combined. Once the compound was added, a true final concentration of compound in each well was measured by an OD600 reading, which adjusted for any compound precipitation that might have occurred in the well. Plate readings were repeated at both 24 and 48 hours. The blank negative control was used as a background subtraction. Additional visual ratings were performed at both 24 and 48 hours for checking on precipitation and confirming efficacy. Visual and OD600 ratings of the compounds at 48 hours were compared to the 2% DMSO negative control, and the percent of pathogen growth inhibition was determined based on those values.

Rhizoctonia solani (Rs) = experiment: Growth inhibition assay of fungal pathogens, Rs; format: cell-based; conditions: 48 h
Protocol: as §1, §2
Fungal spores were isolated from previously sub-cultured plates of Botrtyis cinerea (Bc), Collectotrichum graminicola (Cg), Diplodia maydis (Dm), Fusarium moniliforme (Fm), Fusarium virguliforme (Fv), Phytophthora capsici (Pc), and Septoria tritici (St). The isolated spores were diluted to individual concentrations with a 17% V8 liquid media. For Rhizoctonia solani (Rs) and Pythium irregulare, 1.5 mm mycelial plugs were used in place of spores and/4 Potato Dextrose Broth (PDB) was used for dilution. […]
In a second 96-well plate, the spores or mycelial plugs, media, diluted compound solutions, and controls were combined. Once the compound was added, a true final concentration of compound in each well was measured by an OD600 reading, which adjusted for any compound precipitation that might have occurred in the well. Plate readings were repeated at both 24 and 48 hours. […] Visual and OD600 ratings of the compounds at 48 hours were compared to the 2% DMSO negative control, and the percent of pathogen growth inhibition was determined based on those values.

[1] = tested on: Fusarium moniliforme (Fm); experiment: Growth inhibition assay of fungal pathogens, Fm; format: cell-based; conditions: Fusarium verticillioides, 48 h, read-out: Concentration at 90% Inhibition Fm
Protocol: as §1, §2, §3, §4

C. parapsilosis = experiment: Antifungal Activity Assay (broth microtiter MIC), C. parapsilosis; format: cell-based, Candida parapsilosis; conditions: Lodderomyces parapsilosis, ATCC22019, 48 h
Protocol: (§5) Compounds of the present invention were evaluated in an Antifungal Activity Assay. An exemplary procedure for the assay, which measures the susceptibility of various Candida species to antifungal compounds, follows. Compounds to be tested (including fluconazole and amphotericin B) were dissolved in DMSO to obtain a solution having a concentration of 1 mg/mL. These stock solutions were sterile filtered using a 0.22 um nylon syringe filter, then diluted in sterile water to achieve a final concentration of 128 μg/mL.
(§6) All species were grown from frozen stock by directly plating on to freshly prepared Sabouraud Dextrose agar (BD, Difco) and incubated overnight in ambient air at 35° C. for 24 h. A direct suspension was prepared in RPMI 1640+MOPS (Lonza, Biowhittaker) by taking individual colonies from the overnight cultures using sterile swabs soaked in sterile saline. The concentration of the suspension was determined using pre-determined standard curves. These suspensions were then diluted down to 5×10^3 CFU/mL to achieve a final concentration of 2.5×10^3 CFU/mL once added to the microtiter plate as per CLSI guidelines (M27-A3, Vol. 28 No. 14).
(§7) Broth microtiter MIC challenge plates were prepared following CLSI guidelines (M27-A3, Vol. 28 No. 14). The original CLSI guidelines focused on reading Candida MICs after 48 h of incubation. As reading after only 24 h offers a clear advantage of patient care, QC limits are being established for all drugs at 24 h. That being said there are no known interpretive breakpoints for amphotericin B at 24 h and the current fluconazole interpretive breakpoints are based on a 48 h reading. The MICs for the test compounds were recorded at 48 h. All MIC determinations were achieved by visually comparing the growth found in the antibiotic challenged wells to that of the growth control.

Septoria tritici (St) = experiment: Growth inhibition assay of fungal pathogens, St; format: cell-based; conditions: Zymoseptoria tritici, 48 h, growth inhibition at 48 hours vs 2% DMSO control
Protocol: as §1, §2, §3, §4

[2] = tested on: Fusarium virguliforme (Fv); experiment: Growth inhibition assay of fungal pathogens, Fv; format: cell-based; conditions: 48 h
Protocol: as §1, §2, §3, §4

human (hACC2) = human (hACC2) (Homo sapiens, UniProt O00763); experiment: In vitro ACC inhibition assay (ADP-Glo), hACC2; format: biochemical; conditions: 5 nM ACC2, 20 μM ATP, 20 μM acetyl-CoA
UniProt O00763, sequence (O00763 whole entry): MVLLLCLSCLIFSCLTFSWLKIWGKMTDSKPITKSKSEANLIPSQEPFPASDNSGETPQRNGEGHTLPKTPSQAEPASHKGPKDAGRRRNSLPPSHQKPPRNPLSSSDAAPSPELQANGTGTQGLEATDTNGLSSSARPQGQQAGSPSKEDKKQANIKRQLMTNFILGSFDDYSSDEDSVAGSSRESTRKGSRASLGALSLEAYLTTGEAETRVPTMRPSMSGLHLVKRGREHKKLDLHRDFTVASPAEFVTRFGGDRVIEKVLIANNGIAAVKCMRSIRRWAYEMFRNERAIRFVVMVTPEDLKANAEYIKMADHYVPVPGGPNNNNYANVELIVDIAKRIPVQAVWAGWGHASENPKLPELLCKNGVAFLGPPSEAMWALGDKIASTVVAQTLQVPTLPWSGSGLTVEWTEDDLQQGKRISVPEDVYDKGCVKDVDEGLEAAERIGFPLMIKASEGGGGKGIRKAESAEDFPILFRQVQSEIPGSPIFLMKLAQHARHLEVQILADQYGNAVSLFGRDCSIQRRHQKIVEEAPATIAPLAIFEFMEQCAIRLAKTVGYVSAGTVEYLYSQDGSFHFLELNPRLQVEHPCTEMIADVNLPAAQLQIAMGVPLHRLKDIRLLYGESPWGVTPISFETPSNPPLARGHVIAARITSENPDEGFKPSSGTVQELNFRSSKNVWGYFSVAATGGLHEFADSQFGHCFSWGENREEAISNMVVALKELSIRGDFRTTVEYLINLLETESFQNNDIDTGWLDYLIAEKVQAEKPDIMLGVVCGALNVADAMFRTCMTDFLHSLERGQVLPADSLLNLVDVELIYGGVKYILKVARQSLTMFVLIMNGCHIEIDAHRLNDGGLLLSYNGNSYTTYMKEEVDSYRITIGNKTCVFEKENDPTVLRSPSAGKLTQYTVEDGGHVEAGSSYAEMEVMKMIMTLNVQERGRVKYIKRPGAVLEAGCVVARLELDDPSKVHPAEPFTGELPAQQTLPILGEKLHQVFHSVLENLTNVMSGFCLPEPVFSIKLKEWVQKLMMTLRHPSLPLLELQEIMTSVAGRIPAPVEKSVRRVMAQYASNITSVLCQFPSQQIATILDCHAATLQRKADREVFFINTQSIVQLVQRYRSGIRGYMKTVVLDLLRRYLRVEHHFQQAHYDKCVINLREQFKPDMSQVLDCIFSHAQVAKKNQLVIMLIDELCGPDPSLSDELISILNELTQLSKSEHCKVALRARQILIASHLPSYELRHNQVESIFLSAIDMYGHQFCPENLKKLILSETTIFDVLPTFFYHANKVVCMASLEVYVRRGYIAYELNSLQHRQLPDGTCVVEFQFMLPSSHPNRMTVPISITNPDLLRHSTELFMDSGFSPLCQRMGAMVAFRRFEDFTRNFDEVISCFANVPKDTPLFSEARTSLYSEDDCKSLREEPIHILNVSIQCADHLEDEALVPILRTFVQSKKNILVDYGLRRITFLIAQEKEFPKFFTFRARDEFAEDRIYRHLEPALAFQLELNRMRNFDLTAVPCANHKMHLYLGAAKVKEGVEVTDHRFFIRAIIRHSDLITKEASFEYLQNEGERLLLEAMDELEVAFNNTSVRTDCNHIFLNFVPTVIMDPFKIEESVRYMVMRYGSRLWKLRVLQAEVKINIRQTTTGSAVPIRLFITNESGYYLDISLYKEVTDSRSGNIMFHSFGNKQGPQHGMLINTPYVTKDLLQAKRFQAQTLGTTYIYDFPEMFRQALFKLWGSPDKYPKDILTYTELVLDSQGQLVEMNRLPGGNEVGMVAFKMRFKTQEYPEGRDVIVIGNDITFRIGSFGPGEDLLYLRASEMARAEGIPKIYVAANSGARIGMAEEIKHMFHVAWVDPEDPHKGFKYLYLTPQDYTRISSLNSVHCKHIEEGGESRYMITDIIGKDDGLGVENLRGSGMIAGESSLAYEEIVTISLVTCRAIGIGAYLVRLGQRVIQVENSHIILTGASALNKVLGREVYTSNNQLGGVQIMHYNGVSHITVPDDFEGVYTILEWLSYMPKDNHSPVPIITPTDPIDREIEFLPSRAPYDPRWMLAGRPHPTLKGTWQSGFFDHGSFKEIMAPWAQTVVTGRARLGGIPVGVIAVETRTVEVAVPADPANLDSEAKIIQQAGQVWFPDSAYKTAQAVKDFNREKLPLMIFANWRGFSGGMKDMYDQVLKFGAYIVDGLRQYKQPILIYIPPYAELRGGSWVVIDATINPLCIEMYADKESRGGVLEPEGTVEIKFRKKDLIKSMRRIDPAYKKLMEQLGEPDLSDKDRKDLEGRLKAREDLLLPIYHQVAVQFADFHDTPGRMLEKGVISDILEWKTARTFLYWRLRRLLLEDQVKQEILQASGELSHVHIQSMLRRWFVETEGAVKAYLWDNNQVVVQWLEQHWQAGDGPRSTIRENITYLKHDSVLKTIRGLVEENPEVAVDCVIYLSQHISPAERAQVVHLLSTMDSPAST
Protocol: The detailed procedure is as follows. […] 10 μL ADP glo reagent was added. […] 20 μL kinase detection reagent was added.

[3] = tested on: Collectotrichum graminicola (Cg); experiment: Growth inhibition assay of fungal pathogens, Cg; format: cell-based; conditions: 48 h, growth inhibition at 48 hours vs 2% DMSO control
Protocol: as §1, §2, §3, §4

C. krusei = experiment: Antifungal Activity Assay (broth microtiter MIC), C. krusei; format: cell-based, Candida krusei; conditions: Pichia kudriavzevii, ATCC6258, 48 h
Protocol: as §5, §6, §7

[4] = tested on: Phytophthora capsici (Pc); experiment: Growth inhibition assay of fungal pathogens, Pc; format: cell-based; conditions: 48 h
Protocol: as §1, §2, §3, §4

Diplodia maydis (Dm) = experiment: Growth inhibition assay of fungal pathogens, Dm; format: cell-based; conditions: Stenocarpella maydis, 48 h, growth inhibition at 48 hours vs 2% DMSO control
Protocol: as §1, §2, §3, §4

fungal (fACC2) = fungal (fACC2) (UniProt Q00955); conditions: read-out: fACC2 (in vitro ACC2 Inhibition Assay, IC50), ADP-Glo, 5 nM ACC2, 20 μM ATP, 20 μM acetyl-CoA
UniProt Q00955, sequence (Q00955 whole entry): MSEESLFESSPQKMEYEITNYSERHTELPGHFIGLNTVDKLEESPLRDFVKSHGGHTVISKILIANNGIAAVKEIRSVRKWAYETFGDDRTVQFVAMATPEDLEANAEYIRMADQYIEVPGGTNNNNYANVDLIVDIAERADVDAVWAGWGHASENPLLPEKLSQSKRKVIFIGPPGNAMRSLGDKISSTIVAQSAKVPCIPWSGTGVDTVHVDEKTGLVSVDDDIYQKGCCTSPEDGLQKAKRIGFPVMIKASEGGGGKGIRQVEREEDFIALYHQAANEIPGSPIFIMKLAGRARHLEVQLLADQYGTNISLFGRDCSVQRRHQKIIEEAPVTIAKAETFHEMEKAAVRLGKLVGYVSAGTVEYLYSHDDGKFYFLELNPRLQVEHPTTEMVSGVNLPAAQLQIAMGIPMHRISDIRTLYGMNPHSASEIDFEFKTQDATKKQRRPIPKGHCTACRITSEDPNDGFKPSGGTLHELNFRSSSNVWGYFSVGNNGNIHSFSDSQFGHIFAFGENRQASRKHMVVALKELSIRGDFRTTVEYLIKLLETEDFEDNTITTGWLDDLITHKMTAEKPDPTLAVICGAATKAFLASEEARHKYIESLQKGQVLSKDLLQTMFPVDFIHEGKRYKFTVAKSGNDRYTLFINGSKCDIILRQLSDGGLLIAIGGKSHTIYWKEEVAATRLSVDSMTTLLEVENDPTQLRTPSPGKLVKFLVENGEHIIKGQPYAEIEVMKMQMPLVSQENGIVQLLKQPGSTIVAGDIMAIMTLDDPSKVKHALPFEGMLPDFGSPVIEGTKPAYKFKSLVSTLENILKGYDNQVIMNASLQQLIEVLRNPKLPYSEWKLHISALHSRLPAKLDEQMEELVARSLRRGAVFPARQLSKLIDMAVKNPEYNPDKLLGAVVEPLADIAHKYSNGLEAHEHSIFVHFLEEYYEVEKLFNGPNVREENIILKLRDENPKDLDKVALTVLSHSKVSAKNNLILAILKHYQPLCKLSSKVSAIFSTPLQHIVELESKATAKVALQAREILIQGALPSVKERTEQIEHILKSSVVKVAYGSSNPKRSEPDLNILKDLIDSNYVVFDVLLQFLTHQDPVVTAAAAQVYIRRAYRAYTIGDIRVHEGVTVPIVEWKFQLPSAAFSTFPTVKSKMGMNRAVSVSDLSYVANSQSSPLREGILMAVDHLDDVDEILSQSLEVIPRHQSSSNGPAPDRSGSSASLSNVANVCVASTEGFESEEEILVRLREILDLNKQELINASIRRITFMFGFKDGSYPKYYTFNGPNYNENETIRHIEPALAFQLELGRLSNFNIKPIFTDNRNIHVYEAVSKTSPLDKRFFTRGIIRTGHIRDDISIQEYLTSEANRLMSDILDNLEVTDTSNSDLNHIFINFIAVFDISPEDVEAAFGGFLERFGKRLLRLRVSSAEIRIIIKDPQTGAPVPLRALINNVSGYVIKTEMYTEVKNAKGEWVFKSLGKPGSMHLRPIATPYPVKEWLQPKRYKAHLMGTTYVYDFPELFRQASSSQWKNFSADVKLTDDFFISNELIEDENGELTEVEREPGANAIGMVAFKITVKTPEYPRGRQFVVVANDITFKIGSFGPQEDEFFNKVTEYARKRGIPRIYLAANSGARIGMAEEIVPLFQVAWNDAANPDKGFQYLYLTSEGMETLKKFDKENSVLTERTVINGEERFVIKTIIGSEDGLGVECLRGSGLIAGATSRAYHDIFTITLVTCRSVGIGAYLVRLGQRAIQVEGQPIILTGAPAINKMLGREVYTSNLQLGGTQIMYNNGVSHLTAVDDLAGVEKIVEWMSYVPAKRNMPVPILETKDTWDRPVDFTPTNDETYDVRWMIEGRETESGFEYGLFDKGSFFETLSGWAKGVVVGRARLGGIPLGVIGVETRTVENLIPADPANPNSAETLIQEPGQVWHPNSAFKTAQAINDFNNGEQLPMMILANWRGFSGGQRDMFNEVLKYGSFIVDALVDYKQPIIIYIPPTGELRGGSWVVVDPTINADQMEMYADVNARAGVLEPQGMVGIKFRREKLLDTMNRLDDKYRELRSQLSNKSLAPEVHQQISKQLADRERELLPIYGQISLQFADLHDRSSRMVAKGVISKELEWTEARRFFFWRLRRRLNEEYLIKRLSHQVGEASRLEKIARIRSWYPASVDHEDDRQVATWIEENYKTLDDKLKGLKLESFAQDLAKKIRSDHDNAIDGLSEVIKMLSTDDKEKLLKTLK

C. albicans = experiment: Antifungal Activity Assay (broth microtiter MIC), C. albicans; format: cell-based; conditions: Candida albicans, ATCC90028, 48 h
Protocol: as §5, §6, §7

[5] = Botrtyis cinerea, read-out: Concentration at 90% Inhibition Bc
[6] = mycelial plugs, growth inhibition at 48 hours vs 2% DMSO control, read-out: Concentration at 90% Inhibition Rs
[7] = Fusarium moniliforme, growth inhibition at 48 hours vs 2% DMSO control
[8] = Table 3b (additional results), ATCC 22019, 3 replicates, MIC recorded at 48 h, read-out: MIC, C. parapsilosis ATCC 22019
[9] = Septoria tritici, read-out: Concentration at 90% Inhibition St
[10] = growth inhibition at 48 hours vs 2% DMSO control, read-out: Concentration at 90% Inhibition Fv
[11] = Collectotrichum graminicola, read-out: Concentration at 90% Inhibition Cg
[12] = Table 3b (additional results), ATCC 6258, 3 replicates, MIC recorded at 48 h, read-out: MIC, C. krusei ATCC 6258
[13] = growth inhibition at 48 hours vs 2% DMSO control, read-out: Concentration at 90% Inhibition Pc
[14] = Diplodia maydis, read-out: Concentration at 90% Inhibition Dm
[15] = Table 3b (additional results), ATCC 90028, 3 replicates, MIC recorded at 48 h, read-out: MIC, C. albicans ATCC 90028

| Structure (SMILES) | IC90 (Botrtyis cinerea (Bc); [5]) | IC90 (Rhizoctonia solani (Rs); [6]) | IC90 [1, 7] | MIC (C. parapsilosis; [8]) | IC90 (Septoria tritici (St); [9]) | IC90 [2, 10] | IC50 (human (hACC2); Table 2a) | IC50 (human (hACC2); Table 2b, additional results) | IC90 [3, 11] | MIC (C. krusei; [12]) | IC90 [4, 13] | IC90 (Diplodia maydis (Dm); [14]) | IC50 (fungal (fACC2); Table 2a) | IC50 (fungal (fACC2); Table 2b, additional results) | MIC (C. albicans; [15]) | also measured |
| --- | --- | --- | --- | --- | --- | --- | --- | --- | --- | --- | --- | --- | --- | --- | --- | --- |
| COc1ccc(F)cc1[C@@H](O)Cn1c(=O)n(C(C)(C)C(=O)N2CCCC2)c(=O)c2c(C)c(-n3nccn3)sc21 [Compound I-177] | 2 µg/mL (≈ 3.59 µM) | 0.08 µg/mL (≈ 0.144 µM) | 0.4 µg/mL (≈ 0.719 µM) | 1.01 to 2 µg/mL (≈ 1.81 to 3.59 µM) | > 50 µg/mL | 2 µg/mL (≈ 3.59 µM) | 10 to 40 nM | 10 to 40 nM | 2 µg/mL (≈ 3.59 µM) | 1.01 to 2 µg/mL (≈ 1.81 to 3.59 µM) | > 50 µg/mL | 10 µg/mL (≈ 18 µM) | 0.4 to 1 nM | 0.3 to 1 nM | 1.01 to 2 µg/mL (≈ 1.81 to 3.59 µM) | – |
| COc1ccc(F)cc1[C@@H](O)Cn1c(=O)n(C(C)(C)C(=O)NC(C)C)c(=O)c2c(C)c(-n3nccn3)sc21 [Compound I-180] | – | – | – | – | – | – | 5 to 10 nM | 5 to 10 nM | – | – | – | – | 0.4 to 1 nM | 0.3 to 1 nM | – | IC90 (Botrtyis cinerea (Bc); read-out: Concentration at 90% Inhibition Bc, Botrtyis cinerea): 0.4 µg/mL (≈ 0.734 µM); IC90 (Rhizoctonia solani (Rs); read-out: Concentration at 90% Inhibition Rs, Rhizoctonia solani, mycelial plugs, growth inhibition at 48 hours vs 2% DMSO control): 0.08 µg/mL (≈ 0.147 µM); IC90 [1]: 0.08 µg/mL (≈ 0.147 µM); MIC (C. parapsilosis; read-out: MIC, C. parapsilosis ATCC 22019, Table 3a, 3 replicates, MIC recorded at 48 h): 0.25 to 1 µg/mL (≈ 0.459 to 1.84 µM); MIC (C. parapsilosis; read-out: MIC, C. parapsilosis ATCC 22019, Table 3b (additional results), 3 replicates, MIC recorded at 48 h): 1.01 to 2 µg/mL (≈ 1.85 to 3.67 µM); IC90 (Septoria tritici (St); read-out: Concentration at 90% Inhibition St, Septoria tritici): > 50 µg/mL; IC90 ([2]; read-out: Concentration at 90% Inhibition Fv, Fusarium virguliforme, growth inhibition at 48 hours vs 2% DMSO control): 0.08 µg/mL (≈ 0.147 µM); IC90 ([3]; read-out: Concentration at 90% Inhibition Cg, Collectotrichum graminicola): 0.4 µg/mL (≈ 0.734 µM); MIC (C. krusei; read-out: MIC, C. krusei ATCC 6258, Table 3a, 3 replicates, MIC recorded at 48 h): 0.06 to 0.24 µg/mL (≈ 0.11 to 0.441 µM); MIC (C. krusei; read-out: MIC, C. krusei ATCC 6258, Table 3b (additional results), 3 replicates, MIC recorded at 48 h): 0.25 to 1 µg/mL (≈ 0.459 to 1.84 µM); IC90 ([4]; read-out: Concentration at 90% Inhibition Pc, Phytophthora capsici, growth inhibition at 48 hours vs 2% DMSO control): 10 µg/mL (≈ 18.4 µM); IC90 (Diplodia maydis (Dm); read-out: Concentration at 90% Inhibition Dm, Diplodia maydis): 0.4 µg/mL (≈ 0.734 µM); MIC (C. albicans; read-out: MIC, C. albicans ATCC 90028, Table 3a, 3 replicates, MIC recorded at 48 h): 0.06 to 0.24 µg/mL (≈ 0.11 to 0.441 µM); MIC (C. albicans; read-out: MIC, C. albicans ATCC 90028, Table 3b (additional results), 3 replicates, MIC recorded at 48 h): 1.01 to 2 µg/mL (≈ 1.85 to 3.67 µM) |
| COc1ccc(F)cc1[C@H](Cn1c(=O)n(C(C)(C)C(=O)N2CCCC2)c(=O)c2c(C)c(-n3nccn3)sc21)OCCC#N [Compound I-181] | 2 µg/mL (≈ 3.28 µM) | 2 µg/mL (≈ 3.28 µM) | 2 µg/mL (≈ 3.28 µM) | 1.01 to 2 µg/mL (≈ 1.66 to 3.28 µM) | > 50 µg/mL | 2 µg/mL (≈ 3.28 µM) | – | 5 to 10 nM | 2 µg/mL (≈ 3.28 µM) | 2.01 to 4 µg/mL (≈ 3.3 to 6.56 µM) | > 50 µg/mL | 2 µg/mL (≈ 3.28 µM) | – | 1 to 5 nM | 2.01 to 4 µg/mL (≈ 3.3 to 6.56 µM) | – |

Values after ≈ are worked out from the molar mass of the structure shown. Read-outs that look alike come from different tables or passages of the source.
